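In this assay, cells in 96-well plates receive the compound at five concentrations for 48 hours. Endpoints are linearly interpolated between the surrounding concentrations. GI50 is the concentration that inhibits growth by half.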 Some entries of the source have several records that differ or are many. They are shown here; other results are not. An entry can have further records. For some assays here: Values that stand side by side are repeats across runs, samples, wells, individuals or studies. A tag in brackets gives the origin of a value. Letters count within one entry.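 TGI: concentration producing complete growth inhibition.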 For some assays here: Records of one sample usually come from different ranges of test concentrations, which the source does not state; a value can be the end of its range.
Experiments:
Assay in all cases: inhibition of tumour cell growth, NCI panel, 48 h
LOX IMVI melanoma = test system: LOX IMVI melanoma
A549 NSCLC = test system: A549 NSCLC
SK-OV-3 ovarian = test system: SK-OV-3 ovarian
OVCAR-3 ovarian = test system: OVCAR-3 ovarian
RXF 393 renal = test system: RXF 393 renal
COLO 205 colon = test system: COLO 205 colon
SNB-19 CNS = test system: SNB-19 CNS
SNB-75 CNS = test system: SNB-75 CNS
786-0 renal = test system: 786-0 renal
NCI/ADR-RES ovarian = test system: NCI/ADR-RES ovarian
MCF7 breast = test system: MCF7 breast
UACC-62 melanoma = test system: UACC-62 melanoma
RPMI-8226 leukemia = test system: RPMI-8226 leukemia
MOLT-4 leukemia = test system: MOLT-4 leukemia
MALME-3M melanoma = test system: MALME-3M melanoma
HT29 colon = test system: HT29 colon
NCI-H23 lung = test system: NCI-H23 lung
EKVX NSCLC = test system: EKVX NSCLC
SK-MEL-2 melanoma = test system: SK-MEL-2 melanoma
SF-268 CNS = test system: SF-268 CNS
SK-MEL-5 melanoma = test system: SK-MEL-5 melanoma
OVCAR-4 ovarian = test system: OVCAR-4 ovarian
U251 CNS = test system: U251 CNS
SF-539 CNS = test system: SF-539 CNS
TK-10 renal = test system: TK-10 renal
NCI-H460 lung = test system: NCI-H460 lung
SW-620 colon = test system: SW-620 colon
HCC-2998 colon = test system: HCC-2998 colon
MDA-MB-231 breast = test system: MDA-MB-231 breast

Structure (SMILES): CCCCCCCCCCCCCCCC[N+](C)(C)C
- GI50 (LOX IMVI melanoma): 1.43 µM [sample A, 1 test] and 86.8 nM [sample B, 1 test]
- GI50 (A549 NSCLC): 1.91 µM [sample A, 1 test] and 185 nM [sample B, mean of 2 tests]

Structure (SMILES): COc1cc2c(cc1O)CCN[C@@]21CS[C@H]2c3c(OC(C)=O)c(C)c4c(c3C(COC1=O)N1C2C2c3c(cc(C)c(OC)c3O)CC([C@@H]1O)N2C)OCO4 (some centres not stated)
- TGI (SK-OV-3 ovarian): 8.96 nM and > 1 µM
- TGI (OVCAR-3 ovarian): 0.36 nM and 8.47 nM
- TGI (LOX IMVI melanoma): 0.0124 nM and 1.3 nM
- TGI (RXF 393 renal): < 0.001 nM and 4.43 nM
- TGI (COLO 205 colon): < 0.001 nM and 3.38 nM
- TGI (SNB-19 CNS): 1.02 nM and > 1 µM
- TGI (SNB-75 CNS): < 0.001 nM and 6.43 nM
- TGI (786-0 renal): 0.414 nM and > 1 µM
- TGI (NCI/ADR-RES ovarian): 58.1 nM and 2.51 nM
- TGI (MCF7 breast): 3.35 nM and > 350 nM
- TGI (A549 NSCLC): 0.183 nM and > 1 µM
- TGI (UACC-62 melanoma): < 0.001 nM and 3.36 nM
- TGI (RPMI-8226 leukemia): < 0.001 nM and 7.84 nM
- TGI (MOLT-4 leukemia): 0.0153 nM and > 1 µM
- TGI (MALME-3M melanoma): < 0.001 nM and 24.8 nM
- TGI (HT29 colon): 1.16 nM and > 1 µM
- TGI (NCI-H23 lung): < 0.001 nM and 7.61 nM
- TGI (EKVX NSCLC): < 0.001 nM and 5.61 nM
- TGI (SK-MEL-2 melanoma): < 0.001 nM and 3.71 nM
- TGI (SF-268 CNS): 0.00336 nM, 11 nM, 0.56 nM
- TGI (SK-MEL-5 melanoma): < 0.001 nM and 3.05 nM
- TGI (OVCAR-4 ovarian): < 0.001 nM and 71.3 nM
- TGI (U251 CNS): 0.0116 nM and > 561 nM
- TGI (SF-539 CNS): < 0.001 nM and 7.81 nM
- TGI (TK-10 renal): 1.84 nM, 21.3 nM, > 1 µM
- TGI (NCI-H460 lung): 0.0117 nM and 8.53 nM
- TGI (SW-620 colon): 0.0137 nM and > 332 nM
- TGI (HCC-2998 colon): < 0.001 nM and 2.41 nM

Structure (SMILES): CC(=O)OCC1OC(Sc2nc(-c3ccc(C)cc3)c(C#N)c(=O)n2C2OC(COC(C)=O)C(OC(C)=O)C(OC(C)=O)C2OC(C)=O)C(OC(C)=O)C(OC(C)=O)C1OC(C)=O (configuration not stated)
- GI50 (MDA-MB-231 breast): > 100 µM [sample A, 1 test] and 5.96 µM [sample B, 1 test]
- GI50 (HCC-2998 colon): > 100 µM [sample A, 1 test] and 4.76 µM [sample B, 1 test]

Reference: PubChem BioAssay (NCI)
